# According to PubChem BioAssay AID2147 (National Center for Advancing Translational Sciences (NCATS), 2009):
# Where “and” joins values, the source holds several entries; their conditions need not be identical. Identical values can stand only once. Among all 230,000 compounds or so, about 3,600 (1.6%) were called active. Inconclusive means that the source gave no clear call. Such entries were picked first, then a sample of the others. Calls come from the whole dose curve; as a rule, active = well fitted inhibition curve with a large enough effect (not every such curve was filed as active); inconclusive = small, poorly fitted or top-dose-only effect, or another doubt; inactive = no such curve, though single readings can be large or run the other way. Where the call is inconclusive, the potency comes from a doubtful curve fit.
# Biological target: Lysine-specific demethylase 4E (Homo sapiens) (UniProt B2RXH2)
# UniProt B2RXH2, sequence (B2RXH2 whole entry, looked up, the tested form may be a part): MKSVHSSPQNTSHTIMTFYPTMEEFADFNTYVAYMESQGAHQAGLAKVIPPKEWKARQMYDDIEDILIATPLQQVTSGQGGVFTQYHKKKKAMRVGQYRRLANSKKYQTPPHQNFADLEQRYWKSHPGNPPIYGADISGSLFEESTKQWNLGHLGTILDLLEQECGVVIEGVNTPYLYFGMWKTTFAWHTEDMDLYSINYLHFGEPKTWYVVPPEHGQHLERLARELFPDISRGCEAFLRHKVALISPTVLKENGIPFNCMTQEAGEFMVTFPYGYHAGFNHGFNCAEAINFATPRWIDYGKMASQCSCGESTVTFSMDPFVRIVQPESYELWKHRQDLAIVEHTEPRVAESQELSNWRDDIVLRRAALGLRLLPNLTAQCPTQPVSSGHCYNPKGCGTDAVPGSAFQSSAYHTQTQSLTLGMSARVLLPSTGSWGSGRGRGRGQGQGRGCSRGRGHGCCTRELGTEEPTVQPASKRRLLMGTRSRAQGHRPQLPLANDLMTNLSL
# Assay: qHTS Assay for Inhibitors of Human Jumonji Domain Containing 2E (JMJD2E)
# Details: JMJD2E catalytic domain, FDH-coupled NADH fluorescence (FDH is formaldehyde dehydrogenase); series mostly up to 57.1 µM
# Note: nearly all actives have a fitted effect of over 50% in size.
# Potency is the fitted concentration of half-maximal effect; tags give direction and shape of the fitted curve.
row,SMILES,Potency
1,COc1cc(C2C=C(c3cccs3)Nc3ncnn32)cc(OC)c1OC (stereo not drawn),"inconclusive: 31.6 µM [inhibitor, partial curve]"
2,O=S(=O)(NC1CCCCC1)c1cccc(-c2nnc(-c3ccccc3)o2)c1,"inconclusive: 39.8 µM [inhibitor, single point]"
3,COC(=O)[C@@]1(Cc2ccc(F)cc2)[C@H]2c3cc(C(=O)N(C)C)n(Cc4ccccc4)c3C[C@H]2CN1C(=O)c1ccccc1,"inconclusive: 28.2 µM [inhibitor, single point] and inconclusive: 39.8 µM [inhibitor, single point]"
4,Cc1nc2ccccn2c1/C(O)=C1\C(=O)C(=O)N(CCN2CCOCC2)C1c1cccs1 (stereo not drawn),"inconclusive: 39.8 µM [inhibitor, single point]"
5,CC[C@@H](C)[C@H](NC(=O)OC(C)(C)C)c1nnc(S(=O)(=O)Cc2cc(C)ccc2C)o1,inactive
6,O=C(CSc1n[nH]c(-c2ccccc2O)n1)N1CCOCC1,"inconclusive: 31.6 µM [inhibitor, single point]"
7,O=C(NC1CCCCC1)N(CCO)Cc1cc2cc3c(cc2[nH]c1=O)OCCO3,"inconclusive: 31.6 µM [inhibitor, partial curve]"
8,Cc1nc(NC(=O)c2ccc([N+](=O)[O-])cc2Cl)sc1C(=O)N(C)C,"inconclusive: 28.2 µM [inhibitor, single point]"
9,CCOC(=O)c1ccccc1NC(=O)c1ccc2c(=O)n3c(nc2c1)CCCCC3,"inconclusive: 39.8 µM [inhibitor, single point]"
10,COc1nc(C)ccc1-c1noc(-c2ccccn2)n1,inactive
11,COc1ccc(C(=O)CSc2nnc(-c3cnccn3)n2Cc2ccco2)cc1,inactive
12,C#CCOCCOCCOCCNc1nc(N2CCN(C(=O)Cn3cc(CCCN=C(N)N)nn3)CC2)nc(N2CCN(C(=O)[C@H](C)n3cc(CCCN=C(N)N)nn3)CC2)n1,"inconclusive: 35.5 µM [inhibitor, single point]"
13,C(=N\c1nccs1)/c1c[nH]c2ccccc12,inactive
14,Cc1ccnc(N2CCC(C(=O)NCc3ccc4c(c3)OCO4)CC2)n1,"inconclusive: 31.6 µM [inhibitor, single point]"
15,CC1CCCN(CCOCCOc2ccc(Br)cc2Cl)C1 (stereo not drawn),"inconclusive: 28.2 µM [inhibitor, single point]"
16,C=C1C2(C(=O)NCc3ccco3)CCC(C2)C1(C)C (stereo not drawn),inactive
17,Cc1ccc(OC[C@H](O)[C@H](C)NC(C)C)c2c1CCC2,"inconclusive: 22.4 µM [inhibitor, partial curve, poor fit]"
18,CCCCOc1ccc(C(=O)Nc2ccc(N3CCN(C(=O)C(C)C)CC3)cc2)cc1,"inconclusive: 39.8 µM [inhibitor, single point]"
19,COc1cc(NC(=O)COc2ccc(Cl)cc2)ccc1-c1cc2ccccc2oc1=O,"inconclusive: 28.2 µM [inhibitor, partial curve]"
20,CC(=O)NC(C)C(=O)OCc1ccc(Cl)cc1Cl (stereo not drawn),inactive
21,CN1C(=O)C(Cl)(Cl)C(=O)c2ccccc21,"inconclusive: 28.2 µM [inhibitor, partial curve]"
22,Cn1cc(-c2ccccc2)cc(C#N)c1=O,"inconclusive: 28.2 µM [inhibitor, partial curve]"
23,CN(C(=O)CCl)C1CCCc2ccccc21 (stereo not drawn),inactive

row,SMILES,Potency
1,CC(C)C[C@H](N)CSSC[C@@H](N)CC(C)C,inactive
2,COc1ccc(S(=O)(=O)NCCSC(C)(C)C)cc1Cl,inactive
3,CCOC(=O)C(C)Oc1ccc2c(C)cc(=O)oc2c1C(C)=O (stereo not drawn),"inconclusive: 35.5 µM [inhibitor, single point]"
4,O=C(/C=C/c1cc[n+](CC(=O)c2ccc3cccc4c3c2CC4)cc1)c1ccc2cccc3c2c1CC3,"inconclusive: 35.5 µM [inhibitor, single point]"
5,CC(C)(C)C(=O)Nc1nc(=S)ss1,inactive
6,O=[N+]([O-])c1ccc(-c2ccc(/C=N/c3c(-c4ccco4)nc4ccccn34)o2)cc1,"inconclusive: 28.2 µM [inhibitor, partial curve]"
7,CCC(C)(C)n1nnnc1C(c1cc2cc(C)ccc2[nH]c1=O)N1CCCc2ccccc21 (stereo not drawn),inactive
8,O=C(/C=C\c1cn(-c2ccccc2)nc1-c1ccc2c(c1)OCCO2)N1CCOCC1,"inconclusive: 28.2 µM [inhibitor, partial curve]"
9,Cc1sc(NC(=O)c2ccccc2)c(C(=O)NC(C)C)c1C,inactive
10,c1nc(NC2CCCCC2)c2[nH]cnc2n1,inactive
11,NC(=S)N/N=C/c1ccc(/C=N/NC(N)=S)cc1,"inconclusive: 39.8 µM [inhibitor, single point]"
12,Cc1nc2ccc(NC(=O)c3ccco3)cc2nc1C,"inconclusive: 28.2 µM [inhibitor, partial curve]"
13,COc1cc2ccc(=O)oc2c(OC)c1OC,"inconclusive: 25.1 µM [inhibitor, partial curve]"
14,CCCN(CC#CC(O)(c1ccccc1)c1cccnc1)CCC (stereo not drawn),"inconclusive: 25.1 µM [inhibitor, single point]"
15,O=c1[nH]c(-c2ccco2)nc2sc3c(c12)CCCC3,"inconclusive: 35.5 µM [inhibitor, single point]"
16,Cc1[nH]c(=O)c(C#N)c2c1COC(C)(C)C2,"inconclusive: 28.2 µM [inhibitor, partial curve]"
17,CCC(C)(C)NC(=O)Cc1ccc(F)cc1,"inconclusive: 35.5 µM [inhibitor, single point]"
18,O=C(CSC1=Nc2ccccc2C2=NC(c3ccccc3)C(=O)N12)NC1CCCCC1 (stereo not drawn),"inconclusive: 17.8 µM [inhibitor, partial curve]"
19,Cc1[nH]c(=O)c(C#N)c2c1CCCC2,"inconclusive: 5.62 µM [inhibitor, single point]"
20,COC(=O)c1c(NC(=O)C2C3CCC(O3)C2C(=O)O)sc2c1CCCCCC2 (stereo not drawn),inactive
21,CCn1cnc2cc(NCc3nc4ccccc4n3C)ccc21,"inconclusive: 39.8 µM [inhibitor, single point]"
22,C=CCSc1nc2ccccc2n1Cc1nnc(-c2cccs2)o1,"inconclusive: 31.6 µM [inhibitor, single point]"
23,CCCCc1nc(NCCNC(=O)c2ccccc2)c(C#N)c2c1CSC(C)(C)C2,"inconclusive: 25.1 µM [inhibitor, partial curve]"

row,SMILES,Potency
1,CC(=O)Nc1ccc(NC(=O)c2oc3cc(C)c(C)cc3c2C)cc1,"inconclusive: 35.5 µM [inhibitor, single point]"
2,O=C(c1cccc(Cl)c1)N1CCN(Cc2ccccc2F)CC1,"inconclusive: 25.1 µM [inhibitor, single point]"
3,COc1ccc(C(=O)Nc2ccccc2C(=O)N/N=C/c2ccccn2)cc1OC,"inconclusive: 35.5 µM [inhibitor, single point]"
4,COc1ccc2nc(/C=N/NC(=O)CCNC(=O)OC(C)(C)C)ccc2c1,"inconclusive: 28.2 µM [inhibitor, partial curve]"
5,NC(N)=Nc1nc(CSCC/C(N)=N\S(N)(=O)=O)cs1,inactive
6,Oc1c(/C=N/c2ccccn2)sc2ccccc12,"inconclusive: 39.8 µM [inhibitor, single point]"
7,CC(=O)c1cnc2cc(-c3ccc(Cl)cc3)nn2c1C,"inconclusive: 28.2 µM [inhibitor, partial curve]"
8,COC(=O)c1ccc(-c2ccco2)n1Cc1cccc(C)c1,"inconclusive: 35.5 µM [inhibitor, single point]"
9,Cc1ccc(CNC(=O)c2cn(C)c(=O)c3c2c2ccccc2n3C)o1,"inconclusive: 22.4 µM [inhibitor, partial curve]"
10,C=Cn1ccnc1P(=S)(c1ccc2c(c1)c1ccccc1n2CC)c1nccn1C=C,"inconclusive: 39.8 µM [inhibitor, single point]"
11,CN(C)S(=O)(=O)c1ccc(N2CCCC2)c(C(=O)NCc2ccccc2)c1,"inconclusive: 39.8 µM [inhibitor, single point]"
12,CCN(CC)c1ccc2cc(-c3nc(-c4ccc(OC)cc4)cs3)c(=O)oc2c1,inactive
13,CN(C)c1ccc(-c2cc(NCc3cccnc3)ncn2)cc1,"inconclusive: 28.2 µM [inhibitor, partial curve]"
14,CCN(CC)c1ccc(CN2CCCCCC2)cc1,"inconclusive: 35.5 µM [inhibitor, single point]"
15,O=C(COc1cc(Cl)c(Cl)cc1Cl)N1CCN(c2ccccn2)CC1,"inconclusive: 39.8 µM [inhibitor, single point]"
16,Cc1ccc(C(=O)COC(=O)c2cc(Cl)nc3ccccc23)cc1,"inconclusive: 39.8 µM [inhibitor, single point]"
17,CCC(=O)Nc1ccc2c(c1)nc1n2CCN(C2CCCCC2)C1,"inconclusive: 28.2 µM [inhibitor, partial curve]"
18,O=C(NCCN1C(=O)S/C(=C\c2ccc(Cl)c(Cl)c2)C1=O)C1COc2ccccc2O1 (stereo not drawn),"inconclusive: 35.5 µM [inhibitor, single point]"
19,Cc1ccc(Nc2nc3c(c(=O)[nH]c(=O)n3C)n2Cc2ccc(F)cc2)cc1,"inconclusive: 39.8 µM [inhibitor, single point]"
20,N#Cc1nc(-c2cccs2)oc1NCC1CCCO1 (stereo not drawn),"inconclusive: 31.6 µM [inhibitor, partial curve]"
21,O=C(CCl)Nc1cc2[nH]c(=O)[nH]c2cc1Br,inactive
22,CCc1ccc(C2C(C#N)=C(N)C(C#N)(C#N)C3=CCC(C(C)(C)C)CC32)cc1 (stereo not drawn),"inconclusive: 35.5 µM [inhibitor, single point]"
